From the supplement of paper PMC4604168 (melanoma cell lines)
The other results are listed elsewhere or left out. Many values rest on one well or one pass, so single values are uncertain.

Assays:
Assay in all cases: cell count relative to DMSO control; melanoma cells; higher = more viable cells
WM115 = settings: library dose: low library concentration; 72 h
WM1716 = settings: library dose: low library concentration; 72 h
WM1745 = settings: library dose: low library concentration; 72 h
WM3526 = settings: library dose: low library concentration; 72 h
WM3619 = settings: library dose: low library concentration; 72 h
WM451Lu = settings: library dose: low library concentration; 72 h
501Mel = settings: library dose: standard library concentration; 72 h
A101D = settings: library dose: standard library concentration; 72 h
A2058 = settings: library dose: standard library concentration; 72 h
A375 = settings: library dose: standard library concentration; 72 h

| SMILES | cell count (WM115) [%] | cell count (WM1716) [%] | cell count (WM1745) [%] | cell count (WM3526) [%] | cell count (WM3619) [%] | cell count (WM451Lu) [%] | cell count (501Mel) [%] | cell count (A101D) [%] | cell count (A2058) [%] | cell count (A375) [%] |
| --- | --- | --- | --- | --- | --- | --- | --- | --- | --- | --- |
| Cn1cnc2c(F)c(Nc3ccc(Br)cc3Cl)c(C(=O)NOCCO)cc21 [selumetinib] + Nc1ccn([C@@H]2O[C@H](CO)[C@@H](O)C2(F)F)c(=O)n1 [gemcitabine] (first compound 0.015 µM, partner dose 0.0004 µM) | 95.8 | 118 | 78.6 | 98.5 | 73.3 | 95.9 |  |  |  |  |
| Cn1cnc2c(F)c(Nc3ccc(Br)cc3Cl)c(C(=O)NOCCO)cc21 [selumetinib] + Cn1sc(=O)n(Cc2ccccc2)c1=O [TDZD-8] (first compound 0.015 µM, partner dose 0.4 µM) | 95.8 | 121 | 99.3 | 75 | 73.6 | 108 |  |  |  |  |
| CCN(CC)CCNC(=O)c1c(C)[nH]c(/C=C2\C(=O)Nc3ccc(F)cc32)c1C [sunitinib] + Nc1nc(F)nc2c1ncn2[C@@H]1O[C@H](CO)[C@@H](O)[C@@H]1O [fludarabine] (first compound 0.4 µM, partner dose 0.2 µM) | 101 | 140 | 91.9 | 30.7 | 99.7 | 49.2 |  |  |  |  |
| COc1cc([C@@H]2c3cc4c(cc3[C@@H](O[C@@H]3O[C@@H]5CO[C@@H](C)O[C@H]5[C@H](O)[C@H]3O)[C@H]3COC(=O)[C@H]23)OCO4)cc(OC)c1O [etoposide] + CS(=O)(=O)CCNCc1ccc(-c2ccc3ncnc(Nc4ccc(OCc5cccc(F)c5)c(Cl)c4)c3c2)o1 [lapatinib] (first compound 0.02 µM, partner dose 0.8 µM) | 92.6 | 88.3 | 82.1 | 82.1 |  | 98.3 |  |  |  |  |
| Cn1cnc2c(F)c(Nc3ccc(Br)cc3Cl)c(C(=O)NOCCO)cc21 [selumetinib] + COc1cc2ncnc(Nc3ccc(Oc4ccccc4)cc3)c2cc1OC [SrcI1] (first compound 0.015 µM, partner dose 2 µM) | 83.1 | 113 | 87.9 | 71.8 | 92.5 | 112 |  |  |  |  |
| Cn1cnc2c(F)c(Nc3ccc(Br)cc3Cl)c(C(=O)NOCCO)cc21 [selumetinib] + Cc1cc(Nc2cc(N3CCN(C)CC3)nc(/C=C/c3ccccc3)n2)n[nH]1 [ENMD2076] (first compound 0.015 µM, partner dose 0.04 µM) | 90.8 | 120 | 88.8 | 65.1 | 73.7 | 113 |  |  |  |  |
| Cn1cnc2c(F)c(Nc3ccc(Br)cc3Cl)c(C(=O)NOCCO)cc21 [selumetinib] + CCCCCCCCc1ccc(CCC(N)(CO)CO)cc1 [fingolimod] (first compound 0.015 µM, partner dose 2 µM) | 86.1 | 93.1 | 78.4 | 72.9 | 73.9 | 85.2 |  |  |  |  |
| COc1cc([C@@H]2c3cc4c(cc3[C@@H](O[C@@H]3O[C@@H]5CO[C@@H](C)O[C@H]5[C@H](O)[C@H]3O)[C@H]3COC(=O)[C@H]23)OCO4)cc(OC)c1O [etoposide] + COc1ccc(C2=N[C@@H](c3ccc(Cl)cc3)[C@@H](c3ccc(Cl)cc3)N2C(=O)N2CCNC(=O)C2)c(OC(C)C)c1 [Nutlin-3] (first compound 0.02 µM, partner dose 0.1 µM) | 89.8 | 105 | 96.9 | 77.3 | 87.9 | 112 |  |  |  |  |
| COc1cc([C@@H]2c3cc4c(cc3[C@@H](O[C@@H]3O[C@@H]5CO[C@@H](C)O[C@H]5[C@H](O)[C@H]3O)[C@H]3COC(=O)[C@H]23)OCO4)cc(OC)c1O [etoposide] + CS(=O)(=O)c1ccc(C(=O)Nc2ccc(Cl)c(-c3ccccn3)c2)c(Cl)c1 [vismodegib] (first compound 0.02 µM, partner dose 1 µM) | 91.3 | 95.4 | 121 | 86.5 | 114 | 88.1 |  |  |  |  |
| COc1cc([C@@H]2c3cc4c(cc3[C@@H](O[C@@H]3O[C@@H]5CO[C@@H](C)O[C@H]5[C@H](O)[C@H]3O)[C@H]3COC(=O)[C@H]23)OCO4)cc(OC)c1O [etoposide] + Cc1cc(N2CCOCC2)cc2[nH]c(-c3c(NC[C@@H](O)c4cccc(Cl)c4)cc[nH]c3=O)nc12 [BMS536924] (first compound 0.02 µM, partner dose 0.2 µM) | 97.5 | 91 | 79 | 86.2 | 81.4 | 90.3 |  |  |  |  |
| CCN(CC)CCNC(=O)c1c(C)[nH]c(/C=C2\C(=O)Nc3ccc(F)cc32)c1C [sunitinib] + OCCn1cc(-c2cnc3nnn(Cc4ccc5ncccc5c4)c3n2)cn1 [PF04217903] (first compound 0.4 µM, partner dose 1 µM) | 110 | 118 | 93.9 | 81.1 | 151 | 116 |  |  |  |  |
| Cn1cnc2c(F)c(Nc3ccc(Br)cc3Cl)c(C(=O)NOCCO)cc21 [selumetinib] + CCN(CC)CCCCNc1ncc2cc(-c3cc(OC)cc(OC)c3)c(NC(=O)NC(C)(C)C)nc2n1 [PD173074] (first compound 0.015 µM, partner dose 0.1 µM) | 98.5 | 109 | 94 | 75.7 | 92 | 99.9 |  |  |  |  |
| CCN(CC)CCNC(=O)c1c(C)[nH]c(/C=C2\C(=O)Nc3ccc(F)cc32)c1C [sunitinib] + COc1ccc(COc2ccc(Cc3cnc(N)nc3N)cc2OC)cc1 [GW2580] (first compound 0.4 µM, partner dose 1 µM) | 99.2 | 134 | 60.6 | 92.8 | 112 | 83.7 |  |  |  |  |
| C[C@]1(O)C[C@@H](c2nc(-c3ccc4ccc(-c5ccccc5)nc4c3)c3c(N)nccn32)C1 + NCC(=O)Nc1ccc(-n2nc(C(F)(F)F)cc2-c2ccc3c(ccc4ccccc43)c2)cc1 [OSU03012] (first compound 0.4 µM, partner dose 1 µM) | 91.1 | 98.3 | 74.1 | 45.9 | 67.5 | 49.5 |  |  |  |  |
| C[C@]1(O)C[C@@H](c2nc(-c3ccc4ccc(-c5ccccc5)nc4c3)c3c(N)nccn32)C1 + CC(=O)c1c(C)c2cnc(Nc3ccc(N4CCNCC4)cn3)nc2n(C2CCCC2)c1=O [palbociclib] (first compound 0.4 µM, partner dose 0.04 µM) | 86 | 84.2 | 80.9 | 71.2 | 85.8 | 92.1 |  |  |  |  |
| Cn1cnc2c(F)c(Nc3ccc(Br)cc3Cl)c(C(=O)NOCCO)cc21 [selumetinib] + c1cc(-c2cnn3cc(-c4ccc(OCCN5CCCCC5)cc4)cnc23)ccn1 [Dorsomorphin] (first compound 0.015 µM, partner dose 0.4 µM) | 105 | 117 | 84.2 | 84.9 | 92.2 | 94.8 |  |  |  |  |
| COc1cc([C@@H]2c3cc4c(cc3[C@@H](O[C@@H]3O[C@@H]5CO[C@@H](C)O[C@H]5[C@H](O)[C@H]3O)[C@H]3COC(=O)[C@H]23)OCO4)cc(OC)c1O [etoposide] + CC(=O)c1c(C)c2cnc(Nc3ccc(N4CCNCC4)cn3)nc2n(C2CCCC2)c1=O [palbociclib] (first compound 0.02 µM, partner dose 0.04 µM) | 73.3 | 64.3 | 59.4 | 46.5 | 58.7 | 91.3 |  |  |  |  |
| Cn1cnc2c(F)c(Nc3ccc(Br)cc3Cl)c(C(=O)NOCCO)cc21 [selumetinib] + CCCCCCCCCCCC1=C(O)C(=O)C=C(O)C1=O [Embelin] (first compound 0.015 µM, partner dose 1.2 µM) | 90.3 | 107 | 77.4 | 75.8 | 70.7 | 99.2 |  |  |  |  |
| CCN(CC)CCNC(=O)c1c(C)[nH]c(/C=C2\C(=O)Nc3ccc(F)cc32)c1C [sunitinib] + O=C(O)c1ccc2c(c1)nc(Nc1cccc(Cl)c1)c1ccncc12 [CX4945] (first compound 0.4 µM, partner dose 0.4 µM) | 87.1 | 123 | 82.1 | 72 | 112 | 90.2 |  |  |  |  |
| CCN(CC)CCNC(=O)c1c(C)[nH]c(/C=C2\C(=O)Nc3ccc(F)cc32)c1C [sunitinib] + CCN(CC)CCCCNc1ncc2cc(-c3cc(OC)cc(OC)c3)c(NC(=O)NC(C)(C)C)nc2n1 [PD173074] (first compound 2 µM, partner dose 0.5 µM) |  |  |  |  |  |  | 15.2 | 61.7 | 67.5 | 70.8 |
| COc1cc([C@@H]2c3cc4c(cc3[C@@H](O[C@@H]3O[C@@H]5CO[C@@H](C)O[C@H]5[C@H](O)[C@H]3O)[C@H]3COC(=O)[C@H]23)OCO4)cc(OC)c1O [etoposide] + CCN(CC)CCCCNc1ncc2cc(-c3cc(OC)cc(OC)c3)c(NC(=O)NC(C)(C)C)nc2n1 [PD173074] (first compound 0.1 µM, partner dose 0.5 µM) |  |  |  |  |  |  | 78.9 | 106 | 75.5 | 78.4 |
| C[C@]1(O)C[C@@H](c2nc(-c3ccc4ccc(-c5ccccc5)nc4c3)c3c(N)nccn32)C1 + O=S(=O)(c1ccccc1)N(CC(F)(F)F)c1ccc(C(O)(C(F)(F)F)C(F)(F)F)cc1 [T0901317] (first compound 2 µM, partner dose 7 µM) |  |  |  |  |  |  | 49 | 103 | 113 | 94.8 |
| COc1cc([C@@H]2c3cc4c(cc3[C@@H](O[C@@H]3O[C@@H]5CO[C@@H](C)O[C@H]5[C@H](O)[C@H]3O)[C@H]3COC(=O)[C@H]23)OCO4)cc(OC)c1O [etoposide] + CC(C)CCN1c2nc(Nc3cc(F)c(O)c(F)c3)ncc2N(C)C(=O)C1C [BID1870] (first compound 0.1 µM, partner dose 1 µM) |  |  |  |  |  |  | 79.3 | 67.7 | 70.3 | 80.2 |
| Cn1cnc2c(F)c(Nc3ccc(Br)cc3Cl)c(C(=O)NOCCO)cc21 [selumetinib] + CCN(CC)CCCCNc1ncc2cc(-c3cc(OC)cc(OC)c3)c(NC(=O)NC(C)(C)C)nc2n1 [PD173074] (first compound 0.075 µM, partner dose 0.5 µM) |  |  |  |  |  |  | 36.4 | 66 | 84.9 | 84.2 |
